{
  "source": "the supplement of paper PMC3334620",
  "note": "Over roughly 33,000 sequences, “E-score (-0.5 to 0.5)” has its median near -0.054; the highest 2% begin near 0.39. Some of the results follow.",
  "data": [
    {"target": "Ylr278c (UniProt Q05854)", "test": "PBM E-score (8-mer binding enrichment) (E-score (-0.5 to 0.5)); higher = stronger / more preferred TF binding; most listed sequences are background and not binding sites", "conditions": "protein concentration: 200 nM; construct: GST-DNA-binding domain", "protocol": "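Universal 'all 10-mer' protein binding microarrays (Agilent AMADID 015681) probed with GST-tagged S. cerevisiae TFs (full-length or DBD) made by in vitro transcription/translation (PURExpress), about 100-200 nM. Bound TF was detected with fluorescent anti-GST. Each ungapped 8-mer (which stands for itself and its reverse complement) is scored by the PBM enrichment score (E-score), a modified Wilcoxon-Mann-Whitney statistic from -0.5 to +0.5, computed with the Universal PBM Analysis Suite. Scale: above 0.35 generally sequence-specific binding.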", "values": [
      {"sequence": "AAGGTGGT", "PBM E-score": -0.0094},
      {"sequence": "CGAACAAG", "PBM E-score": 0.0603},
      {"sequence": "ATTAGAGA", "PBM E-score": -0.225},
      {"sequence": "GCATGATA", "PBM E-score": -0.063},
      {"sequence": "CCAGTCAG", "PBM E-score": -0.19},
      {"sequence": "AGTGTGTC", "PBM E-score": -0.198},
      {"sequence": "ACACCCGT", "PBM E-score": -0.106},
      {"sequence": "GTCCGAAA", "PBM E-score": 0.426},
      {"sequence": "CGCAAGGA", "PBM E-score": -0.0117},
      {"sequence": "GGGCTATA", "PBM E-score": -0.0939},
      {"sequence": "CGCGGAGC", "PBM E-score": 0.41},
      {"sequence": "CATAGTGC", "PBM E-score": -0.105},
      {"sequence": "GGTTTGAA", "PBM E-score": -0.0015},
      {"sequence": "AAGTTAGC", "PBM E-score": -0.114},
      {"sequence": "ATATTCCG", "PBM E-score": 0.43},
      {"sequence": "TGTGCACA", "PBM E-score": -0.22},
      {"sequence": "CAACGTAG", "PBM E-score": -0.188},
      {"sequence": "ATACGACG", "PBM E-score": 0.0511},
      {"sequence": "GCAGACGA", "PBM E-score": -0.119},
      {"sequence": "CCGTTAGA", "PBM E-score": 0.231},
      {"sequence": "GCGGCACC", "PBM E-score": 0.223},
      {"sequence": "CGCTCTTA", "PBM E-score": 0.114},
      {"sequence": "CTGACCCA", "PBM E-score": -0.26},
      {"sequence": "CCCGTTGC", "PBM E-score": -0.0717},
      {"sequence": "GCTGCGAC", "PBM E-score": -0.216},
      {"sequence": "GCAAGTTA", "PBM E-score": -0.0274},
      {"sequence": "ACCGCACT", "PBM E-score": 0.132},
      {"sequence": "CCTATTTA", "PBM E-score": -0.0606},
      {"sequence": "AGGAACCC", "PBM E-score": 0.00516},
      {"sequence": "AATAACAG", "PBM E-score": -0.0964},
      {"sequence": "CAACAGGA", "PBM E-score": -0.195},
      {"sequence": "ATACCCGC", "PBM E-score": 0.226},
      {"sequence": "CTACGGGA", "PBM E-score": 0.172},
      {"sequence": "AGTCGAAG", "PBM E-score": -0.259},
      {"sequence": "ACCTCGCT", "PBM E-score": -0.0554},
      {"sequence": "GTTCGAAC", "PBM E-score": -0.0286},
      {"sequence": "CTTAAGGA", "PBM E-score": -0.232},
      {"sequence": "ATGCTCTC", "PBM E-score": -0.115},
      {"sequence": "ACGTGGCG", "PBM E-score": 0.0141},
      {"sequence": "TATATAGA", "PBM E-score": -0.0873},
      {"sequence": "AGGTGCGG", "PBM E-score": 0.231},
      {"sequence": "GGTGCACA", "PBM E-score": -0.128},
      {"sequence": "ATCGAAAG", "PBM E-score": -0.0309},
      {"sequence": "AAACATTT", "PBM E-score": -0.0935},
      {"sequence": "AAGACAGA", "PBM E-score": -0.0502},
      {"sequence": "AGGCCGCG", "PBM E-score": 0.141},
      {"sequence": "CAAACTCG", "PBM E-score": 0.0627},
      {"sequence": "AGTATGAG", "PBM E-score": -0.0996},
      {"sequence": "CGTTAGAC", "PBM E-score": -0.0149},
      {"sequence": "ATTCGCAC", "PBM E-score": 0.0877},
      {"sequence": "GATAGAGA", "PBM E-score": -0.143},
      {"sequence": "ACCGGAAT", "PBM E-score": 0.389},
      {"sequence": "GAACGGAA", "PBM E-score": 0.32},
      {"sequence": "CAAATGAG", "PBM E-score": -0.178},
      {"sequence": "AGCCCGTC", "PBM E-score": -0.0585},
      {"sequence": "AAAACGAA", "PBM E-score": 0.0564},
      {"sequence": "CGGATGCC", "PBM E-score": 0.156},
      {"sequence": "AATATTGG", "PBM E-score": -0.0777},
      {"sequence": "AATGGTTG", "PBM E-score": 0.0204},
      {"sequence": "GCCACCCC", "PBM E-score": -0.0819},
      {"sequence": "ACAGACGT", "PBM E-score": -0.0641},
      {"sequence": "CACATATA", "PBM E-score": -0.0871},
      {"sequence": "CATTGATA", "PBM E-score": 0.0385},
      {"sequence": "TGAAGTCA", "PBM E-score": -0.0781},
      {"sequence": "CCCTGGAC", "PBM E-score": -0.177},
      {"sequence": "GCCTATTA", "PBM E-score": -0.101},
      {"sequence": "CACGACAG", "PBM E-score": -0.134},
      {"sequence": "CATGAACA", "PBM E-score": -0.165},
      {"sequence": "AATTCTCC", "PBM E-score": 0.407},
      {"sequence": "AACAATGC", "PBM E-score": -0.0737},
      {"sequence": "TCTCCACA", "PBM E-score": -0.14},
      {"sequence": "CACTGCGG", "PBM E-score": 0.111},
      {"sequence": "CAGAGGCC", "PBM E-score": -0.235},
      {"sequence": "GTATGGAC", "PBM E-score": 0.0892},
      {"sequence": "GCGCACGA", "PBM E-score": 0.0451},
      {"sequence": "GGATATCA", "PBM E-score": 0.166},
      {"sequence": "AAGACCCT", "PBM E-score": -0.263},
      {"sequence": "AAGGACCC", "PBM E-score": -0.00784},
      {"sequence": "GAAAATCC", "PBM E-score": 0.326},
      {"sequence": "ACGAGATA", "PBM E-score": -0.132},
      {"sequence": "CCTATTCA", "PBM E-score": 0.0466},
      {"sequence": "AACTCCCC", "PBM E-score": 0.266},
      {"sequence": "TCTACTCA", "PBM E-score": -0.164},
      {"sequence": "CCGTAATC", "PBM E-score": 0.153},
      {"sequence": "CACTTGGC", "PBM E-score": -0.064},
      {"sequence": "CCGTCGTA", "PBM E-score": 0.0447}
    ]}
  ]
}
